According to a compilation of properties of binary mixtures (doi:10.1021/acs.jced.9b00769):
Some of these densities may be calculated back from excess volumes.

Assay: xn = mol fraction of the nth substance listed
Conditions: 100 kPa

OCCN(CCO)CCO + CCCCCCCCCCCC[P+](CC)(CC)CC.N#Cc1ccc[n-]1
x2 = 0
Conditions | mass density [kg/m3]
293.15 K | 1123
298.15 K | 1120
303.15 K | 1117
313.15 K | 1111

OCCN(CCO)CCO + CCCCCCCCCCCC[P+](CCCC)(CCCC)CCCC.N#Cc1ccc[n-]1
x2 = 0
Conditions | mass density [kg/m3]
293.15 K | 1123
303.15 K | 1117
313.15 K | 1111

OCCN(CCO)CCO + CCCC[P+](CC)(CC)CC.N#Cc1ccc[n-]1
x2 = 0
Conditions | mass density [kg/m3]
293.15 K | 1123
298.15 K | 1120
303.15 K | 1117
313.15 K | 1111

CCCCCCCCCCCC[P+](CC)(CC)CC.N#Cc1ccc[n-]1 + OCCN(CCO)CCO
mass density [kg/m3]
Conditions | 293.15 K | 298.15 K | 303.15 K | 313.15 K
x1 = 0.005 | 1121 | 1118 | 1115 | –
x1 = 0.02 | 1112 | 1110 | 1107 | 1101
x1 = 0.042 | 1101 | 1098 | 1096 | –
x1 = 0.065 | 1091 | 1088 | – | –
x1 = 0.09 | 1080 | 1077 | – | 1069
x1 = 0.116 | 1070 | 1067 | – | –
x1 = 0.218 | 1039 | 1036 | 1034 | 1028
x1 = 0.299 | 1019 | 1016 | 1013 | 1008
x1 = 0.501 | 984 | – | 979 | –
x1 = 0.686 | – | 962 | 959 | 953
x1 = 0.809 | 954 | – | 948 | –
x1 = 1 | 948 | 945 | 942 | 936

CCCCCCCCCCCC[P+](CCCC)(CCCC)CCCC.N#Cc1ccc[n-]1 + OCCN(CCO)CCO
mass density [kg/m3]
Conditions | 293.15 K | 303.15 K | 313.15 K | 323.15 K
x1 = 0.004 | 1121 | 1116 | 1110 | 1104
x1 = 0.007 | 1119 | 1113 | 1108 | 1102
x1 = 0.01 | 1116 | 1111 | 1105 | 1100
x1 = 0.014 | 1114 | – | 1103 | 1097
x1 = 0.027 | 1105 | 1099 | – | 1088
x1 = 0.035 | – | 1094 | 1089 | 1083
x1 = 0.042 | 1095 | 1089 | – | 1078
x1 = 0.054 | 1087 | – | 1076 | –
x1 = 0.065 | 1081 | – | 1070 | –
x1 = 0.075 | 1075 | 1069 | – | 1058
x1 = 0.096 | – | 1059 | – | 1047
x1 = 0.121 | – | 1046 | 1041 | 1035
x1 = 0.177 | 1031 | 1025 | 1019 | 1013
x1 = 0.244 | 1010 | 1005 | 999 | 993
x1 = 0.324 | – | 986 | 980 | 974
x1 = 0.43 | 971 | 966 | 960 | 954
x1 = 0.538 | – | 951 | 945 | 939
x1 = 1 | – | – | 906 | 900

CCCC[P+](CC)(CC)CC.N#Cc1ccc[n-]1 + OCCN(CCO)CCO
mass density [kg/m3]
Conditions | x1 = 0.028 | x1 = 0.059 | x1 = 0.089 | x1 = 0.123 | x1 = 0.272 | x1 = 0.537 | x1 = 0.763 | x1 = 1
293.15 K | 1117 | 1109 | 1102 | 1096 | 1072 | 1033 | 1011 | 991
298.15 K | 1114 | 1106 | 1100 | 1093 | 1068 | 1030 | 1007 | 988
303.15 K | 1111 | 1103 | 1097 | – | 1065 | 1027 | 1004 | 985
313.15 K | 1106 | 1098 | 1091 | 1082 | 1059 | 1022 | 998 | 980
